# Counter-ions that a name gives are not always drawn. Over roughly 2,800 compounds, “cell viability relative to vehicle” has its median near 0.98; the lowest 2% begin near 0.45. Some of the results follow.
# Test system: NCI-H2228 alectinib-DTP
# Experiment: cell viability relative to vehicle (fraction of vehicle); NCI-H2228 is an ALK-positive lung cancer line and DTP means drug-tolerant persister; higher = less growth inhibition
# Conditions: 100 nM; treatment time 6 days
# How it was run: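 Values give cell viability as a fraction of vehicle-treated cells. Parental and drug-tolerant persister NCI-H2228 cells (persisters made with 1000 nM of a targeted drug for 13 days) were exposed in 384-well plates to the 3114-agent TargetMol anti-cancer compound library at 100 nM, with DMSO as vehicle. ATP was then read after 6 days by the CellTiter-Glo 3D Cell Viability Assay.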
row,SMILES,cell viability
1,CCCC(=O)OCOC(=O)C1=C(C)NC(C)=C(C(=O)OC)C1c1cccc(Cl)c1Cl (stereo not drawn) [Clevidipine butyrate],1.22
2,C[C@H]1COc2c(N3CCN(C)CC3)c(F)cc3c(=O)c(C(=O)O)cn1c23 [Levofloxacin Hemihydrate],0.911
3,Cn1c(O)c(C2=c3ccccc3=NC2=O)c2ccccc21 [Methylisoindigotin],0.85
4,Nc1ccc(S(=O)(=O)NCCc2ccccc2)cc1,0.91
5,Fc1ccc([C@@H]2CCNC[C@H]2COc2ccc3c(c2)OCO3)cc1 [Paroxetine hydrochloride],0.99
6,Nc1nc(O)c2ncn(CCC(CO)CO)c2n1 [Penciclovir],0.955
7,CN1CCN(c2ccc(OC(F)(F)F)c(Nc3ncc4c(n3)-c3c(c(C(N)=O)nn3CCO)CC4)c2)CC1,0.704
8,O=c1[nH]cnc2c1ncn2[C@H]1CC[C@@H](CO)O1 [Didanosine],0.953
9,O=C(/C=C/N1C[C@H]2C[C@@H]1CN2c1ccccn1)c1ccccc1O,0.925
10,CC1COc2c(N3CCN(C)CC3)c(F)cc3c(=O)c(C(=O)O)cn1c23 (stereo not drawn) [Ofloxacin],1.08
11,CCOC(=O)Nc1ccc(NCc2ccc(F)cc2)nc1N [Flupirtine maleate],0.988
12,CCOc1cc(C(C)(C)C)ccc1C1=N[C@@](C)(c2ccc(Cl)cc2)[C@@](C)(c2ccc(Cl)cc2)N1C(=O)N1CCN(CCCS(C)(=O)=O)CC1,1.16
13,Cc1cc(C)nc(NC(=S)N2CCN(Cc3ccc(C(F)(F)F)cc3)CC2)c1,1.21
14,CC(C)=CCc1cc2c(cc1O)oc(=O)c1c3ccc(O)cc3oc21 [Psoralidin],1.15
15,C[C@H](CCC(=O)O)[C@H]1CC[C@H]2[C@@H]3CC[C@@H]4C[C@H](O)CC[C@]4(C)[C@H]3CC[C@]12C [Lithocholic acid],0.908
16,S=C(NCc1ccc2c(c1)OCO2)N1CCN(c2ncnc3c2oc2ccccc23)CC1 [Amuvatinib],0.914
17,CC(=O)OCC[N+](C)(C)C [Acetylcholine chloride],1.17
18,CC1(C)CCC2=C(O1)c1ccccc1C(=O)C2=O [Beta-Lapachone],1.07
19,CC(C)C(=O)Nc1ccc([N+](=O)[O-])c(C(F)(F)F)c1 [Flutamide],1.03
20,Cn1cnc([N+](=O)[O-])c1Sc1ncnc2[nH]cnc12 [Azathioprine],0.914
21,CN(C)CCCn1cc(C2=C(c3c[nH]c4ccccc34)C(=O)NC2=O)c2ccccc21 [Bisindolylmaleimide I],0.925
22,COc1cccc(-c2cc(F)ccc2[C@H]2Cc3nc(N)nc(C)c3C(=O)N2)n1,0.502
23,COc1nc(N)nc2c1ncn2[C@@H]1O[C@H](CO)[C@@H](O)[C@@H]1O [Nelarabine],0.995
24,O=C(Nc1cccc(Nc2ncc(Br)c(NCCc3cnc[nH]3)n2)c1)N1CCCC1,1.02
25,COc1ccccc1N1CCN(CCCNc2cc(=O)n(C)c(=O)n2C)CC1 [Urapidil hydrochloride],1.1
26,COc1ccccc1N1CCN(CCCNc2cc(=O)n(C)c(=O)n2C)CC1 [Urapidil],1.09

row,SMILES,cell viability
1,C[C@H](CCOc1cccc(CC(=O)O)c1)N(Cc1cccc(C(F)(F)F)c1Cl)CC(c1ccccc1)c1ccccc1,0.781
2,CCN(CC)Cc1cc(Nc2ccnc3cc(Cl)ccc23)ccc1O [Amodiaquine hydrochloride],1.2
3,CN(C)c1ccccc1CN1CCCN(Cc2ccccc2N(C)C)C1c1ccncc1,1.09
4,OC[C@H]1O[C@@H](n2cnc3c2N=CNC[C@H]3O)C[C@@H]1O [Pentostatin],1.04
5,O=c1c2ccccc2nc2n1CCc1c-2[nH]c2ccccc12 [Rutaecarpine],1.03
6,O=C(O)C(S)=Cc1c[nH]c2ccc(F)cc12,0.843
7,COc1ccc2[nH]c(C(=O)c3ccccc3)cc2c1,0.576
8,O=C(/C=C/C=C/c1ccc2c(c1)OCO2)N1CCCCC1 [Piperine],1.07
9,CC(=O)NCCC(=O)O,0.958
10,C#CCN(C)CCCOc1ccc(Cl)cc1Cl [Clorgyline hydrochloride],0.993
11,O=C(O)CN(CCN(CC(=O)O)CC(=O)O)CCN(CC(=O)O)CC(=O)O [Pentetic Acid],1.17
12,O=C1/C(=C/c2ccc(O)cc2)Oc2cc(O)ccc21 [Hispidol],1.04
13,"CC(=O)/C(C)=N/O [2,3-Butanedione 2-Monoxime]",1.09
14,CC(C)NCC(O)c1cc(O)cc(O)c1 (stereo not drawn) [Orciprenaline sulfate],0.913
15,CC(C)Cc1ccc(-c2nc(-c3ccc(CN4CC(C(=O)O)C4)c(F)c3)no2)cc1 [S1p-receptor-agonist-1],1.03
16,CC(C(=O)Nc1cccc(/N=C/c2c(O)ccc3ccccc23)c1)c1ccccc1 (stereo not drawn) [Salermide],0.89
17,C[C@@]1(c2cc(-c3cncnc3)c(F)cc2F)CCSC(N)=N1,1.06
18,C[C@H]1Oc2cc(cnc2N)-c2c(nn(C)c2C#N)CN(C)C(=O)c2ccc(F)cc21 [Lorlatinib],1.12
19,CCCN1CCN(c2ccc(C(=O)NC3(C(=O)NCC#N)CCCCC3)cc2)CC1 [Balicatib],0.934
20,CC(=O)Nc1ccc(C(=O)NC(C)(C)C)cc1,0.817
21,O=C1NC(=O)[C@@H](c2cn3c4c(cccc24)CCC3)[C@@H]1c1c[nH]c2ccccc12 [Tivantinib],0.992
22,CCc1cnn2c(NCc3ccc[n+]([O-])c3)cc(N3CCCC[C@H]3CCO)nc12 [Dinaciclib],0.17
23,CC(C)(C(=O)NCC(F)(F)C(F)(F)F)C(=O)N[C@@H]1C(=O)Nc2ccccc2-c2ccccc21,1.09
24,O=C(O[C@@H]1Cc2c(O)cc(O)cc2O[C@H]1c1cc(O)c(O)c(O)c1)c1cc(O)c(O)c(O)c1 [(-)-Gallocatechin gallate],1.03
25,Cc1cc(C)c(CNC(=O)c2cc(-c3ccc(N4CCN(C)CC4)nc3)cc3c2c(C)cn3C(C)C)c(=O)[nH]1,1.08
26,CNCCCN1c2ccccc2CCc2ccccc21 [Desipramine hydrochloride],0.995

row,SMILES,cell viability
1,O=C1c2c(O)cc(O)cc2O[C@H](c2cc(O)c(O)c(O)c2)[C@H]1O [Dihydromyricetin],1.04
2,Cc1ccsc1C(=CCCN1CCC[C@@H](C(=O)O)C1)c1sccc1C [Tiagabine],0.927
3,O=C(CNc1ccc2ccccc2c1)N/N=C/c1cc(Br)c(O)c(Br)c1O,0.858
4,C[C@H]1[C@H](OC(=O)CCC(=O)O)O[C@@H]2O[C@@]3(C)CC[C@H]4[C@H](C)CC[C@@H]1[C@@]24OO3 [Artesunate],1.12
5,Cc1c(CN2CCN(c3cccc(C(F)(F)F)c3)CC2)cc(-c2ccccc2)n1NC(=O)c1ccncc1 [Sudoterb free base],0.959
6,CN(C)CCNC(=O)c1cccn2c(=O)c3cc4ccccc4cc3nc12,0.825
7,C[n+]1ccccc1/C=N/O [Pralidoxime Chloride],1.05
8,CCC(C)n1ncn(-c2ccc(N3CCN(c4ccc(OCC5COC(Cn6cncn6)(c6ccc(Cl)cc6Cl)O5)cc4)CC3)cc2)c1=O (stereo not drawn) [Itraconazole],1.03
9,Cc1cccc(Nc2ccccc2C(=O)O)c1C [Mefenamic acid],1.08
10,COC(=O)[C@H](CCSC)NC(=O)c1ccc(NC[C@@H](N)CS)cc1-c1ccccc1 [FTI 277 hydrochloride],1.1
11,CCOc1cc(N)c(Cl)cc1C(=O)NCC1CN(Cc2ccc(F)cc2)CCO1 (stereo not drawn) [Mosapride Citrate],0.812
12,O=C(O)CCNC(=O)c1ccc(/N=N/c2ccc(O)c(C(=O)O)c2)cc1 [Balsalazide disodium salt dihydrate],1.03
13,OC[C@H]1O[C@@H](Oc2ccc3c(c2)OC[C@H]2c4cc5c(cc4O[C@@H]32)OCO5)[C@H](O)[C@@H](O)[C@@H]1O [Trifolirhizin],1.05
14,CCCCc1nc(Cl)c(CO)n1Cc1ccc(-c2ccccc2-c2nnn[nH]2)cc1 [Losartan],1.06
15,CCCCc1nc(Cl)c(CO)n1Cc1ccc(-c2ccccc2-c2nnn[nH]2)cc1 [Losartan potassium],1.07
16,CC1(C)S[C@@H]2[C@H](NC(=O)Cc3ccccc3)C(=O)N2[C@H]1C(=O)O [Penicillin G sodium salt],0.917
17,COc1c(O)cc2oc3cc(O)c(CC=C(C)C)c(O)c3c(=O)c2c1CC=C(C)C [Mangostin],1.01
18,O=C(Nc1cccc2cccnc12)c1ccc(N2C(=O)[C@@H]3[C@H](C2=O)[C@@H]2C=C[C@H]3C2)cc1 [IWR-1-endo],0.926
19,CC(=O)OCC1=C(C(=O)O)N2C(=O)[C@@H](NC(=O)Cc3cccs3)[C@H]2SC1 [Cephalothin sodium],1.03
20,C=CCn1c(=O)c2cnc(Nc3ccc(N4CCN(C)CC4)cc3)nc2n1-c1cccc(C(C)(C)O)n1 [Adavosertib],0.8
21,Cc1nc2n(c(=O)c1CCN1CCC(c3noc4cc(F)ccc34)CC1)CCCC2O (stereo not drawn) [Paliperidone],0.929
22,C[C@H](CCC(=O)NCCS(=O)(=O)O)[C@H]1CC[C@H]2[C@@H]3[C@@H](O)C[C@@H]4C[C@H](O)CC[C@]4(C)[C@H]3CC[C@]12C [Tauroursodeoxycholic Acid],0.992
23,c1cn2cc(-c3ccc4cn[nH]c4c3)nc(Nc3ccc(N4CCOCC4)cc3)c2n1 [Entospletinib],0.952
24,O=C1CCC(N2C(=O)c3ccccc3C2=O)C(=O)N1 (stereo not drawn) [Thalidomide],1.03
25,COc1c2ccoc2cc2oc(=O)ccc12 [Bergapten],1.13
26,CCC(Sc1nnc2c(n1)[nH]c1ccccc12)C(=O)N1c2ccccc2Sc2ccccc21 (stereo not drawn) [Inauhzin],1.06

# — the supplement of paper PMC10600219
